Source: the supplement of paper PMC10724272

Each test system was assayed with CC[C@H](C)C[C@H](C)CCCCCCCCC(=O)N[C@H]1C[C@@H](O)[C@@H](NCCN)NC(=O)[C@@H]2[C@@H](O)CCN2C(=O)[C@H]([C@H](O)CCN)NC(=O)[C@H]([C@H](O)[C@@H](O)c2ccc(O)cc2)NC(=O)[C@@H]2C[C@@H](O)CN2C(=O)[C@H]([C@@H](C)O)NC1=O [caspofungin] (assay: CLSI broth microdilution.).
Test System “Candida tropicalis isolate 204 (ERG11 copies: 2, Erg11p: Y132F, S154F (homozygous))” has an MIC of 0.03 mg/L [S].
Work on “Candida tropicalis isolate 47 (ERG11 copies: 8, Erg11p: Y132F, S154F (heterozygous))” yielded an MIC of 0.03 mg/L [S].
In the case of “Candida tropicalis isolate 163 (ERG11 copies: 2, Erg11p: no key change)”, the MIC is reported as 0.03 mg/L [S].
“Candida tropicalis isolate 82 (ERG11 copies: 2, Erg11p: no key change)” was tested, and the MIC was 0.03 mg/L [S].
“Candida tropicalis isolate 139 (ERG11 copies: 2, Erg11p: no key change)” was tested, and the MIC was 0.03 mg/L [S].
Work on “Candida tropicalis isolate 180 (ERG11 copies: 2, Erg11p: no key change)” yielded an MIC of 0.015 mg/L [S].
For “Candida tropicalis isolate 111 (ERG11 copies: 2, Erg11p: no key change)”, the MIC was 0.03 mg/L [S].
“Candida tropicalis isolate 195 (ERG11 copies: 2, Erg11p: no key change)” was tested, and the MIC was 0.06 mg/L [S].
For “Candida tropicalis isolate 409 (ERG11 copies: 2, Erg11p: Y132F, S154F (homozygous))”, the MIC was 0.03 mg/L [S].
“Candida tropicalis isolate 434 (ERG11 copies: 6, Erg11p: Y132F, S154F, P397S (heterozygous))” was tested, and the MIC was 0.03 mg/L [S].
Test System “Candida tropicalis isolate 355 (ERG11 copies: 2, Erg11p: no key change)” has an MIC of 0.03 mg/L [S].
“Candida tropicalis isolate 210 (ERG11 copies: 2, Erg11p: no key change)” showed an MIC of 0.06 mg/L [S].
For “Candida tropicalis isolate 317 (ERG11 copies: 2, Erg11p: no key change)”, the MIC was 0.015 mg/L [S].
“Candida tropicalis isolate 270 (ERG11 copies: 2, Erg11p: no key change)” gave an MIC of 0.12 mg/L [S].
“Candida tropicalis isolate 267 (ERG11 copies: 2, Erg11p: no key change)” showed an MIC of 0.03 mg/L [S].
Work on “Candida tropicalis isolate 100 (ERG11 copies: 2, Erg11p: no key change)” yielded an MIC of 0.25 mg/L [S].
“Candida tropicalis isolate 293 (ERG11 copies: 2, Erg11p: no key change)” was tested, and the MIC was 0.12 mg/L [S].
“Candida tropicalis isolate 126 (ERG11 copies: 2, Erg11p: no key change)” was tested, and the MIC was 0.015 mg/L [S].

These test systems were tested with C[C@@H](c1ncncc1F)[C@](O)(Cn1cncn1)c1ccc(F)cc1F [voriconazole] (assay: CLSI broth microdilution.).
With “Candida tropicalis isolate 24 (ERG11 copies: 2, Erg11p: Y132F, S154F (homozygous))” the MIC was greater than 8 mg/L [R].
“Candida tropicalis isolate 213 (ERG11 copies: 2, Erg11p: no key change)” gave an MIC of 0.06 mg/L [S].
Work on “Candida tropicalis isolate 118 (ERG11 copies: 2, Erg11p: no key change)” yielded an MIC of 0.5 µg/mL.
For “Candida tropicalis isolate 158 (ERG11 copies: 2, Erg11p: no key change)”, the MIC was 0.03 mg/L [S].
“Candida tropicalis isolate 284 (ERG11 copies: 6, Erg11p: Y132F, S154F (heterozygous))” showed an MIC of no less than 8 mg/L [R].
Work on “Candida tropicalis isolate 373 (ERG11 copies: 2, Erg11p: no key change)” yielded an MIC of 0.06 mg/L [S].
Work on “Candida tropicalis isolate 261 (ERG11 copies: 8, Erg11p: Y132F, S154F (heterozygous))” yielded an MIC of no less than 8 mg/L [R].
In the case of “Candida tropicalis isolate 394 (ERG11 copies: 2, Erg11p: no key change)”, the MIC is reported as no more than 0.008 mg/L [S].
Test System “Candida tropicalis isolate 408 (ERG11 copies: 2, Erg11p: no key change)” has an MIC of 0.5 µg/mL.
“Candida tropicalis isolate 289 (ERG11 copies: 2, Erg11p: no key change)” gave an MIC of 0.25 µg/mL.
Test System “Candida tropicalis isolate 342 (ERG11 copies: 2, Erg11p: no key change)” has an MIC of 0.12 mg/L [S].
Test System “Candida tropicalis isolate 315 (ERG11 copies: 2, Erg11p: no key change)” has an MIC of 0.06 mg/L [S].
Work on “Candida tropicalis isolate 243 (ERG11 copies: 2, Erg11p: no key change)” yielded an MIC of 0.06 mg/L [S].
“Candida tropicalis isolate 51 (ERG11 copies: 2, Erg11p: no key change)” was tested, and the MIC was 0.06 mg/L [S].
“Candida tropicalis isolate 160 (ERG11 copies: 2, Erg11p: no key change)” was tested, and the MIC was 0.25 µg/mL.
With “Candida tropicalis isolate 202 (ERG11 copies: 2, Erg11p: no key change)” the MIC was 0.06 mg/L [S].
In the case of “Candida tropicalis isolate 128 (ERG11 copies: 2, Erg11p: no key change)”, the MIC is reported as 0.03 mg/L [S].
“Candida tropicalis isolate 348 (ERG11 copies: 2, Erg11p: no key change)” was tested, and the MIC was 0.12 mg/L [S].
“Candida tropicalis isolate 204 (ERG11 copies: 2, Erg11p: Y132F, S154F (homozygous))” showed an MIC of 4 mg/L [R].
Test System “Candida tropicalis isolate 47 (ERG11 copies: 8, Erg11p: Y132F, S154F (heterozygous))” has an MIC of no less than 8 mg/L [R].
Work on “Candida tropicalis isolate 163 (ERG11 copies: 2, Erg11p: no key change)” yielded an MIC of 0.06 mg/L [S].
In the case of “Candida tropicalis isolate 82 (ERG11 copies: 2, Erg11p: no key change)”, the MIC is reported as 0.12 mg/L [S].
“Candida tropicalis isolate 139 (ERG11 copies: 2, Erg11p: no key change)” showed an MIC of 0.12 mg/L [S].
“Candida tropicalis isolate 180 (ERG11 copies: 2, Erg11p: no key change)” was tested, and the MIC was no more than 0.008 mg/L [S].
“Candida tropicalis isolate 111 (ERG11 copies: 2, Erg11p: no key change)” was tested, and the MIC was no more than 0.008 mg/L [S].
“Candida tropicalis isolate 195 (ERG11 copies: 2, Erg11p: no key change)” showed an MIC of 0.06 mg/L [S].
“Candida tropicalis isolate 409 (ERG11 copies: 2, Erg11p: Y132F, S154F (homozygous))” gave an MIC of 4 mg/L [R].
With “Candida tropicalis isolate 434 (ERG11 copies: 6, Erg11p: Y132F, S154F, P397S (heterozygous))” the MIC was no less than 8 mg/L [R].
With “Candida tropicalis isolate 355 (ERG11 copies: 2, Erg11p: no key change)” the MIC was 0.12 mg/L [S].
For “Candida tropicalis isolate 210 (ERG11 copies: 2, Erg11p: no key change)”, the MIC was 0.25 µg/mL.
Work on “Candida tropicalis isolate 317 (ERG11 copies: 2, Erg11p: no key change)” yielded an MIC of 0.12 mg/L [S].
“Candida tropicalis isolate 270 (ERG11 copies: 2, Erg11p: no key change)” showed an MIC of 0.12 mg/L [S].
“Candida tropicalis isolate 267 (ERG11 copies: 2, Erg11p: no key change)” showed an MIC of 0.06 mg/L [S].
For “Candida tropicalis isolate 100 (ERG11 copies: 2, Erg11p: no key change)”, the MIC was 2 mg/L [R].
“Candida tropicalis isolate 293 (ERG11 copies: 2, Erg11p: no key change)” gave an MIC of 0.12 mg/L [S].
“Candida tropicalis isolate 126 (ERG11 copies: 2, Erg11p: no key change)” was tested, and the MIC was 0.06 mg/L [S].

Each test system was assayed with C[C@@H]1[C@H](O)[C@@H](C)/C=C/C=C/C=C/C=C/C=C/C=C/C=C/[C@H](O[C@@H]2O[C@H](C)[C@@H](O)[C@H](N)[C@@H]2O)C[C@@H]2O[C@](O)(C[C@@H](O)C[C@@H](O)[C@H](O)CC[C@@H](O)C[C@@H](O)CC(=O)O[C@H]1C)C[C@H](O)[C@H]2C(=O)O [amphotericin B] (assay: CLSI broth microdilution.).
With “Candida tropicalis isolate 24 (ERG11 copies: 2, Erg11p: Y132F, S154F (homozygous))” the MIC was 1 mg/L [S].
Test System “Candida tropicalis isolate 213 (ERG11 copies: 2, Erg11p: no key change)” has an MIC of 1 mg/L [S].
“Candida tropicalis isolate 118 (ERG11 copies: 2, Erg11p: no key change)” showed an MIC of 1 mg/L [S].
“Candida tropicalis isolate 158 (ERG11 copies: 2, Erg11p: no key change)” gave an MIC of 0.5 mg/L [S].
With “Candida tropicalis isolate 284 (ERG11 copies: 6, Erg11p: Y132F, S154F (heterozygous))” the MIC was 1 mg/L [S].
Work on “Candida tropicalis isolate 373 (ERG11 copies: 2, Erg11p: no key change)” yielded an MIC of 0.5 mg/L [S].
Test System “Candida tropicalis isolate 261 (ERG11 copies: 8, Erg11p: Y132F, S154F (heterozygous))” has an MIC of 1 mg/L [S].
“Candida tropicalis isolate 394 (ERG11 copies: 2, Erg11p: no key change)” was tested, and the MIC was 0.5 mg/L [S].
Test System “Candida tropicalis isolate 408 (ERG11 copies: 2, Erg11p: no key change)” has an MIC of 1 mg/L [S].
“Candida tropicalis isolate 289 (ERG11 copies: 2, Erg11p: no key change)” was tested, and the MIC was 0.25 mg/L [S].
“Candida tropicalis isolate 342 (ERG11 copies: 2, Erg11p: no key change)” gave an MIC of 1 mg/L [S].
Test System “Candida tropicalis isolate 315 (ERG11 copies: 2, Erg11p: no key change)” has an MIC of 1 mg/L [S].
Work on “Candida tropicalis isolate 243 (ERG11 copies: 2, Erg11p: no key change)” yielded an MIC of 1 mg/L [S].
For “Candida tropicalis isolate 51 (ERG11 copies: 2, Erg11p: no key change)”, the MIC was 0.5 mg/L [S].
“Candida tropicalis isolate 160 (ERG11 copies: 2, Erg11p: no key change)” was tested, and the MIC was 1 mg/L [S].
“Candida tropicalis isolate 202 (ERG11 copies: 2, Erg11p: no key change)” was tested, and the MIC was 1 mg/L [S].
“Candida tropicalis isolate 128 (ERG11 copies: 2, Erg11p: no key change)” was tested, and the MIC was 0.25 mg/L [S].
“Candida tropicalis isolate 348 (ERG11 copies: 2, Erg11p: no key change)” was tested, and the MIC was 1 mg/L [S].
Work on “Candida tropicalis isolate 204 (ERG11 copies: 2, Erg11p: Y132F, S154F (homozygous))” yielded an MIC of 1 mg/L [S].
Test System “Candida tropicalis isolate 47 (ERG11 copies: 8, Erg11p: Y132F, S154F (heterozygous))” has an MIC of 1 mg/L [S].
For “Candida tropicalis isolate 163 (ERG11 copies: 2, Erg11p: no key change)”, the MIC was 1 mg/L [S].
For “Candida tropicalis isolate 82 (ERG11 copies: 2, Erg11p: no key change)”, the MIC was 0.5 mg/L [S].
For “Candida tropicalis isolate 139 (ERG11 copies: 2, Erg11p: no key change)”, the MIC was 1 mg/L [S].
For “Candida tropicalis isolate 180 (ERG11 copies: 2, Erg11p: no key change)”, the MIC was 1 mg/L [S].
In the case of “Candida tropicalis isolate 111 (ERG11 copies: 2, Erg11p: no key change)”, the MIC is reported as 0.5 mg/L [S].
“Candida tropicalis isolate 195 (ERG11 copies: 2, Erg11p: no key change)” was tested, and the MIC was 0.5 mg/L [S].
With “Candida tropicalis isolate 409 (ERG11 copies: 2, Erg11p: Y132F, S154F (homozygous))” the MIC was 0.25 mg/L [S].

MIC of invasive clinical C. tropicalis isolates, CLSI broth microdilution (fluconazole 0.12-256 mg/L, up to 1,024 for the azole-resistant cluster and its neighbour group; other ranges not stated); higher = less susceptible. Call: susceptible or wild type [S] / resistant or non-wild type [R] by CLSI breakpoints or cut-offs; intermediate and dose-dependent carry no call. '<=' and '>=' at the end values are inferred; the source marks only some of them. Isolates are numbered anew.
